Reference: PubChem BioAssay AID1508642 (National Center for Advancing Translational Sciences (NCATS), 2021)
The whole screen tested about 43,000 compounds, of which about 200 (0.47%) were called active. Inconclusive results (about 12%) are left out. Calls follow the shape of the dose curve; as a rule, active = well fitted cell-killing curve with a large enough effect; inconclusive = small, poorly fitted or top-dose-only effect, or effect the other way; inactive = flat fitted curve, though single readings scatter. The list shows a part of the results.

assay: Cell viability qHTS assay in S16 Pmp22-F2sN cells; settings: S16 Pmp22-F2sN Schwann cells viability, CellTiter-Glo, 24 h; series mostly up to 57.5 µM; activity change, negative = cytotoxicity: at the top concentration; also: nearly all actives have a fitted effect of over 65% in size
How it was run: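 Viability was measured by CellTiter-Glo luminescence (15 min, room temperature). This followed 24 h at 37 °C of compound exposure (23 nL pin transfer) in S16 Pmp22-F2sN Schwann cells, 500-1,000 per well.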
% is scaled to controls: 0 for no effect and ±100 for the full control effect.

SMILES | activity change, negative = cytotoxicity
Cc1cccc(CCNC(=O)CCc2c(C)nc3ncnn3c2C)c1 | inactive: 2.37%
COc1ccc(Cc2nc3ccc(C(=O)NCCCN4CCN(C)CC4)cc3o2)cc1 | inactive: 6.67%
Cc1ccccc1-c1nc(SCC(=O)NCC2CCCO2)c2c(=O)n(C)c(=O)n(C)c2n1 (configuration not stated) | inactive: -0.73%
CCCc1cc(=O)oc2cc(C)c3c(C(C)(C)C)coc3c12 | inactive: 7.18%
O=C(CCn1c(=O)c2cccn2c2cccnc21)NCc1ccccc1F | inactive: 11.3%
COc1cccc(NC(=O)c2ccc3[nH]c(C)cc(=O)c3c2)c1 | inactive: 20.4%
O=C(COc1ccc(F)cc1)Nc1ccccc1OCc1cc(=O)n2ccccc2n1 | inactive: 11.7%
COc1ccc(-c2noc(-c3ccc(NC4CCCCC4)c([N+](=O)[O-])c3)n2)cc1 | inactive: 1.42%
COC(=O)c1ccc(Cn2nc(-c3ccc(C)cc3)ccc2=O)cc1 | inactive: 5.88%
CCOc1ccc(N(C(C)C(=O)NCCSc2ccc(C)cc2)S(C)(=O)=O)cc1 (configuration not stated) | inactive: 0.554%
COc1cccc(C(c2sc3nc(-c4ccco4)nn3c2O)N2CCN(c3ccccc3F)CC2)c1 (configuration not stated) | inactive: -0.473%
Cc1cc(C)cc(NC(=O)C(=O)NCC(c2cccnc2)N2CCN(c3ccccc3)CC2)c1 (configuration not stated) | inactive: 3.15%
COc1ccc(-n2ccn(Cc3ccccc3C)c(=O)c2=O)cc1 | inactive: -5.5%
CCc1cc2c(cc3c(=O)n(CC(=O)NC4CCCCC4)ncn32)s1 | inactive: 6.42%
O=C1CN(C(=O)Nc2ccccc2Cl)C(c2ccccc2)c2c(sc3c2CCCC3)N1 (configuration not stated) | inactive: 5.05%
COc1ccc(-c2cc(C(=O)NCCc3ccc(OC)c(OC)c3)c3ccccc3n2)cc1 | inactive: 0.801%
COc1ccc(NC(=O)C(C)Sc2cc(-c3ccccc3)nc(C)n2)cc1Cl (configuration not stated) | inactive: 8.02%
CCCNC(=O)C1CCN(Cc2cc3ccccc3n2Cc2ccccc2)CC1 | inactive: -20.6%
CC1(C)CC(=O)c2cc(-c3nc(-c4ccc(Cl)cc4)cs3)c(=O)n(-c3cccc(F)c3)c2C1 | inactive: 1.61%
COc1cc(C)ccc1OCCSc1nc2ccc(NC(=O)c3ccc(C)cc3)cc2s1 | inactive: 4.05%
COc1ccccc1NC(=O)CCn1cnc2onc(-c3ccc(F)cc3)c2c1=O | inactive: -19%

SMILES | activity change, negative = cytotoxicity
O=C(CN1C(=O)CC(c2ccco2)Sc2ccccc21)Nc1ccc(Br)cc1 (configuration not stated) | inactive: -2.48%
CCCSc1nnc2c(n1)OC(c1ccc(OCC(=O)O)cc1)Nc1ccccc1-2 (configuration not stated) | inactive: 1.59%
COc1ccccc1-c1noc(-c2ccc(NCc3cccnc3)c([N+](=O)[O-])c2)n1 | inactive: 0.488%
COc1ccc(-c2ccc(CCC(=O)O)n2CC(=O)Nc2cccc(Cl)c2C)cc1 | inactive: 4.05%
CC(=O)c1cccc(Nc2nn(-c3ccc(OC(F)(F)F)cc3)nc2C(C)=O)c1 | inactive: 4.08%
COc1ccc(CNC(=O)CCc2c(C)nc3nc(CNC(=O)OC(C)(C)C)nn3c2C)cc1 | inactive: -19.9%
Cc1c(C(=O)N(Cc2ccc(N(C)C)cc2)Cc2ccco2)oc2cc(Br)ccc12 | inactive: 1.67%
Cn1cc(C(=O)NCCc2ccccc2)c(=O)c2cc(S(=O)(=O)N3CCCCCC3)ccc21 | inactive: -17.6%
CCN(Cc1ccccc1)Cc1c(O)ccc2c(=O)c(-c3ccccc3Cl)coc12 | inactive: -19%
CCn1cc(C(=O)NCCCOC(C)C)c(=O)c2cc(S(=O)(=O)N(C)C3CCCCC3)ccc21 | inactive: -17.9%
O=C(Nc1cc(-c2nc3cc(Cl)ccc3o2)ccc1Cl)c1cc2ccccc2o1 | inactive: 1.11%
CCOC(=O)c1c(-c2ccccc2)csc1NC(=O)c1cc(-c2cccc(Cl)c2)on1 | inactive: 1.42%
Cc1ccc(C)c(N2CCN(S(=O)(=O)c3ccc4c(c3)n(C)c(=O)c(=O)n4C)CC2)c1 | inactive: 18.5%
O=C(NCc1ccccc1)c1ccc(Cn2c(=O)c3cccn3c3cccnc32)cc1 | inactive: 4.47%
CC(=O)c1cccc(NC(=O)c2ccc3c(c2)c(C)c(C)n3Cc2ccc(Cl)cc2)c1 | inactive: -21.7%
COc1cc(OC)c(NC(=O)CSCc2nc(-c3ccc(OC)c(OC)c3)no2)cc1Cl | inactive: 2.76%
CCOc1ccccc1NC(=O)CN1Cc2ccccc2C1=O | inactive: -4.32%
COC(=O)c1ccc(CN(Cc2ccc(OC)c(OC)c2)S(=O)(=O)c2ccc(F)c(C(=O)Nc3cc(C)ccc3C)c2)cc1 | inactive: -1.11%
CC(Oc1ccccc1)C(=O)Nc1ccc(C(=O)OCc2cc(=O)n3ccsc3n2)cc1 (configuration not stated) | inactive: 14.6%
Cc1cccc(C(=O)NCC(=O)OCc2cc(=O)n3nc(C)sc3n2)c1 | inactive: -0.73%
N#Cc1nc(/C=C/c2ccc(F)cc2)oc1N1CCCCC1 | inactive: -0.567%

SMILES | activity change, negative = cytotoxicity
CCc1nn2c(=O)cc(COC(=O)c3cccs3)nc2s1 | inactive: 7.36%
Cc1nc(SCC(=O)Nc2ccc(Cl)cc2C(F)(F)F)[nH]c(=O)c1Cc1ccccc1 | inactive: 22.6%
Cc1ccc(Cn2cc3c(n2)-c2c(oc(C(=O)Nc4ccc(F)cc4F)c2C)CC3)cc1 | inactive: 10.7%
Cc1cccc(Nc2cc(C)nc3nc(Cc4ccc(Cl)cc4)nn23)c1 | inactive: -21.3%
CCOC(=O)c1ccc(NC(=O)Cn2cc(S(=O)(=O)Cc3ccccc3F)c3ccccc32)cc1 | inactive: 12.9%
Cc1cc(-c2ccccc2)nc2cc(C(=O)Nc3cc(C(F)(F)F)ccc3Cl)nn12 | inactive: 16.6%
COc1ccc(CNC(=O)c2ccc3c(Cl)c4c(nc3c2)CCCC4)c(OC)c1 | inactive: 0.891%
COc1ccc(-c2ccc(NS(=O)(=O)c3ccccc3Cl)cc2)nn1 | inactive: -19.1%
COc1ccc(Cn2c(CCC(=O)Nc3cccc(Cl)c3)nc3cccnc32)cc1 | inactive: 7.61%
Cc1nc(N2CCOCC2)c2c(C(=O)N3CCN(c4ccc(Cl)cc4)CC3)c(C)oc2n1 | inactive: 6.43%
CCOc1cccc2cc(-c3nc(-c4ccc(Cl)cc4)c(C)s3)c(=O)oc12 | inactive: 10.8%
CCc1ccc(-c2cn3c(n2)sc2cc(C(=O)NCCCc4ccccc4)ccc23)cc1 | inactive: -3.53%
COc1ccc(-c2nsc(NC(=O)c3cccc(OC)c3)n2)cc1 | inactive: -1.18%
Cc1ccc(OCCSc2nc3ccccc3n2CC(=O)N2CCCCC2)c(C)c1 | inactive: -20.7%
O=C(Nc1cccc(-c2nc3cc(Cl)ccc3o2)c1)c1ccc(F)cc1 | inactive: 12.6%
O=C(Cn1c(=O)n(Cc2ccc(F)cc2)c(=O)c2sc3ccccc3c21)NCc1ccccc1 | inactive: 5.76%
COc1cccc(OCc2nc3ccccc3n2C)c1 | inactive: 8.06%
O=C(CCn1cnc2onc(-c3ccc(F)cc3)c2c1=O)N1CCN(c2ccccc2)CC1 | inactive: -1.72%
O=C(NCc1noc2ccccc12)N1CCN(c2ccccc2F)CC1 | inactive: 0.527%
O=C(Cn1c(=O)oc2cc(S(=O)(=O)N3CCCC3)ccc21)Nc1ccc(OC(F)(F)F)cc1 | inactive: 1.37%
